In all, about 81,000 sequences were measured (“one-hybrid fitness for binding parS DNA”: median about -0.17, highest 2% from about 0.51 on). This is one part of the list.
B1: Caulobacter ParB omega fusion; a variant is named by its letters at X, in order, B8GW30 (parent)
chain: MESVVVGEPGMSEGRRGLGRGLSALLGEVDAAPAQAPGEQLGGSREAPIEILQRNPDQPRRTFREEDLEDLSNSIREKGVLQPILVRPSPDTAGEYQIVAGERAWRAAQRAGLKTVPIMVRELDDLAVLEIGIIENVQRADLNVLEEALSYKVLMEKFERTQENIAQTIGKSXSHVANXMRLLXLPDEVQSYLVSGELTAXHARAIAAAADPVALAKQIIEGGLSVRETEALARKAPNLSAGKSKGGRPPRVKDTDTQALESDLSSVLGLDVSIDHRGSTGTLTITYATLEQLDDLCNRLTRGI

Variants of: B1
Experiment: one-hybrid fitness for binding parS DNA (scaled: cognate 1, non-cognate 0); higher = stronger binding
Details: with parS DNA site
Procedure, shortened: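 Bacterial one-hybrid selection in E. coli USO rpoZ- hisB- pyrF- with a HIS3 reporter carrying the site 19 bp from the promoter, screening Caulobacter ParB libraries with four specificity codons randomised (NNS). Cells grew 48 hours at 37°C on M9-minus-histidine plus 0.1 mM IPTG and 5 mM 3-AT. Plasmids before and after selection were Illumina-sequenced, three replicate libraries pooled, and variants under 10 reads dropped. Fitness is the log change in variant-to-wild-type read ratio, rescaled to cognate 1, non-cognate 0.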

PLFD and LYAY cannot be ordered by “one-hybrid fitness for binding parS DNA” value: ≤ 0.2 for the first, ≤ 0.2 for the second.

KDVS and DGVM cannot be ordered by “one-hybrid fitness for binding parS DNA” value: ≤ 0.2 for the first, ≤ 0.2 for the second.

VIVG and ADKR cannot be ordered by “one-hybrid fitness for binding parS DNA” value: ≤ 0.2 for the first, ≤ 0.2 for the second.

WGLR and TAKK cannot be ordered by “one-hybrid fitness for binding parS DNA” value: ≤ 0.2 for the first, ≤ 0.2 for the second.

FVVG and RMVL cannot be ordered by “one-hybrid fitness for binding parS DNA” value: ≤ 0.2 for the first, ≤ 0.2 for the second.

QNLD and RDHY cannot be ordered by “one-hybrid fitness for binding parS DNA” value: ≤ 0.2 for the first, ≤ 0.2 for the second.

QISF and QYEV cannot be ordered by “one-hybrid fitness for binding parS DNA” value: ≤ 0.2 for the first, ≤ 0.2 for the second.

IRRC and VWHT cannot be ordered by “one-hybrid fitness for binding parS DNA” value: ≤ 0.2 for the first, ≤ 0.2 for the second.

IPSC and THTG cannot be ordered by “one-hybrid fitness for binding parS DNA” value: ≤ 0.2 for the first, ≤ 0.2 for the second.

CYMR and RQPN cannot be ordered by “one-hybrid fitness for binding parS DNA” value: ≤ 0.2 for the first, ≤ 0.2 for the second.

Going from RYMS to ACCG, the “one-hybrid fitness for binding parS DNA” value falls from 0.963 to ≤ 0.2.

RDSP and SPQM cannot be ordered by “one-hybrid fitness for binding parS DNA” value: ≤ 0.2 for the first, ≤ 0.2 for the second.

CTRR and NPFK cannot be ordered by “one-hybrid fitness for binding parS DNA” value: ≤ 0.2 for the first, ≤ 0.2 for the second.

SASR and CWKG cannot be ordered by “one-hybrid fitness for binding parS DNA” value: ≤ 0.2 for the first, ≤ 0.2 for the second.

GLRA and ADCA cannot be ordered by “one-hybrid fitness for binding parS DNA” value: ≤ 0.2 for the first, ≤ 0.2 for the second.

Compared with GLVG, RIYC is higher in “one-hybrid fitness for binding parS DNA” value: ≤ 0.2 for the first, 0.964 for the second.

SFWR and DMAR cannot be ordered by “one-hybrid fitness for binding parS DNA” value: ≤ 0.2 for the first, ≤ 0.2 for the second.

NINV and HQLT cannot be ordered by “one-hybrid fitness for binding parS DNA” value: ≤ 0.2 for the first, ≤ 0.2 for the second.

TLHL and RRTD cannot be ordered by “one-hybrid fitness for binding parS DNA” value: ≤ 0.2 for the first, ≤ 0.2 for the second.

ECHE and YVDA cannot be ordered by “one-hybrid fitness for binding parS DNA” value: ≤ 0.2 for the first, ≤ 0.2 for the second.

CAIS and HGRR cannot be ordered by “one-hybrid fitness for binding parS DNA” value: ≤ 0.2 for the first, ≤ 0.2 for the second.

CLCG and RHGW cannot be ordered by “one-hybrid fitness for binding parS DNA” value: ≤ 0.2 for the first, ≤ 0.2 for the second.

Compared with GTFE, RKEN is higher in “one-hybrid fitness for binding parS DNA” value: ≤ 0.2 for the first, 0.351 for the second.

GTSL and LNSC cannot be ordered by “one-hybrid fitness for binding parS DNA” value: ≤ 0.2 for the first, ≤ 0.2 for the second.

MIPR and HSMV cannot be ordered by “one-hybrid fitness for binding parS DNA” value: ≤ 0.2 for the first, ≤ 0.2 for the second.

TIYG and SHPH cannot be ordered by “one-hybrid fitness for binding parS DNA” value: ≤ 0.2 for the first, ≤ 0.2 for the second.

HPEC and DEHN cannot be ordered by “one-hybrid fitness for binding parS DNA” value: ≤ 0.2 for the first, ≤ 0.2 for the second.

AAKF and STEW cannot be ordered by “one-hybrid fitness for binding parS DNA” value: ≤ 0.2 for the first, ≤ 0.2 for the second.

RSFF and SYPL cannot be ordered by “one-hybrid fitness for binding parS DNA” value: ≤ 0.2 for the first, ≤ 0.2 for the second.

QPND and EIQC cannot be ordered by “one-hybrid fitness for binding parS DNA” value: ≤ 0.2 for the first, ≤ 0.2 for the second.

LYKR and SFTP cannot be ordered by “one-hybrid fitness for binding parS DNA” value: ≤ 0.2 for the first, ≤ 0.2 for the second.

GFGY and LQKK cannot be ordered by “one-hybrid fitness for binding parS DNA” value: ≤ 0.2 for the first, ≤ 0.2 for the second.

LRFH and SKSG cannot be ordered by “one-hybrid fitness for binding parS DNA” value: ≤ 0.2 for the first, ≤ 0.2 for the second.

QLVW and PGRT cannot be ordered by “one-hybrid fitness for binding parS DNA” value: ≤ 0.2 for the first, ≤ 0.2 for the second.

PHAF and DETM cannot be ordered by “one-hybrid fitness for binding parS DNA” value: ≤ 0.2 for the first, ≤ 0.2 for the second.

MSNS and MRID cannot be ordered by “one-hybrid fitness for binding parS DNA” value: ≤ 0.2 for the first, ≤ 0.2 for the second.

DGHF and CCQY cannot be ordered by “one-hybrid fitness for binding parS DNA” value: ≤ 0.2 for the first, ≤ 0.2 for the second.

TLLY and LDDM cannot be ordered by “one-hybrid fitness for binding parS DNA” value: ≤ 0.2 for the first, ≤ 0.2 for the second.

SFAP and YQGC cannot be ordered by “one-hybrid fitness for binding parS DNA” value: ≤ 0.2 for the first, ≤ 0.2 for the second.

AHLD and VAMH cannot be ordered by “one-hybrid fitness for binding parS DNA” value: ≤ 0.2 for the first, ≤ 0.2 for the second.

PEPD and NLWC cannot be ordered by “one-hybrid fitness for binding parS DNA” value: ≤ 0.2 for the first, ≤ 0.2 for the second.

First: GYDR
Second: IEAA
The “one-hybrid fitness for binding parS DNA” value of the first is lower: ≤ 0.2 for the first, 0.301 for the second.

PCGS and QNHG cannot be ordered by “one-hybrid fitness for binding parS DNA” value: ≤ 0.2 for the first, ≤ 0.2 for the second.

LTAP and AMYS cannot be ordered by “one-hybrid fitness for binding parS DNA” value: ≤ 0.2 for the first, ≤ 0.2 for the second.

RYSL and VMVR cannot be ordered by “one-hybrid fitness for binding parS DNA” value: ≤ 0.2 for the first, ≤ 0.2 for the second.

SLCT and HTNG cannot be ordered by “one-hybrid fitness for binding parS DNA” value: ≤ 0.2 for the first, ≤ 0.2 for the second.

PNHS and ERKY cannot be ordered by “one-hybrid fitness for binding parS DNA” value: ≤ 0.2 for the first, ≤ 0.2 for the second.

Compared with RTKF, SMAN is lower in “one-hybrid fitness for binding parS DNA” value: 0.734 for the first, ≤ 0.2 for the second.

GVVS and MSRT cannot be ordered by “one-hybrid fitness for binding parS DNA” value: ≤ 0.2 for the first, ≤ 0.2 for the second.

RMYV and MKPF cannot be ordered by “one-hybrid fitness for binding parS DNA” value: ≤ 0.2 for the first, ≤ 0.2 for the second.

YCCS and IKAC cannot be ordered by “one-hybrid fitness for binding parS DNA” value: ≤ 0.2 for the first, ≤ 0.2 for the second.

AKQC and YGFT cannot be ordered by “one-hybrid fitness for binding parS DNA” value: ≤ 0.2 for the first, ≤ 0.2 for the second.

THHV and SNTM cannot be ordered by “one-hybrid fitness for binding parS DNA” value: ≤ 0.2 for the first, ≤ 0.2 for the second.

STGP and DLTW cannot be ordered by “one-hybrid fitness for binding parS DNA” value: ≤ 0.2 for the first, ≤ 0.2 for the second.

LNTS and VKRV cannot be ordered by “one-hybrid fitness for binding parS DNA” value: ≤ 0.2 for the first, ≤ 0.2 for the second.

EQAF and ENKC cannot be ordered by “one-hybrid fitness for binding parS DNA” value: ≤ 0.2 for the first, ≤ 0.2 for the second.

LQLI and YFDI cannot be ordered by “one-hybrid fitness for binding parS DNA” value: ≤ 0.2 for the first, ≤ 0.2 for the second.

FARS and DFDS cannot be ordered by “one-hybrid fitness for binding parS DNA” value: ≤ 0.2 for the first, ≤ 0.2 for the second.

FLYT and ITCR cannot be ordered by “one-hybrid fitness for binding parS DNA” value: ≤ 0.2 for the first, ≤ 0.2 for the second.

KGHG and DTNG cannot be ordered by “one-hybrid fitness for binding parS DNA” value: ≤ 0.2 for the first, ≤ 0.2 for the second.

CPGR and VAVG cannot be ordered by “one-hybrid fitness for binding parS DNA” value: ≤ 0.2 for the first, ≤ 0.2 for the second.

KLIL and ASRQ cannot be ordered by “one-hybrid fitness for binding parS DNA” value: ≤ 0.2 for the first, ≤ 0.2 for the second.

VWHS and FKSL cannot be ordered by “one-hybrid fitness for binding parS DNA” value: ≤ 0.2 for the first, ≤ 0.2 for the second.

Compared with RQDA, QKNG is lower in “one-hybrid fitness for binding parS DNA” value: 0.546 for the first, ≤ 0.2 for the second.

NNGV and QAHT cannot be ordered by “one-hybrid fitness for binding parS DNA” value: ≤ 0.2 for the first, ≤ 0.2 for the second.

EEVR and SSKS cannot be ordered by “one-hybrid fitness for binding parS DNA” value: ≤ 0.2 for the first, ≤ 0.2 for the second.

KKMV and PSVA cannot be ordered by “one-hybrid fitness for binding parS DNA” value: ≤ 0.2 for the first, ≤ 0.2 for the second.

GCQG and SQRC cannot be ordered by “one-hybrid fitness for binding parS DNA” value: ≤ 0.2 for the first, ≤ 0.2 for the second.

PRYC and YNTL cannot be ordered by “one-hybrid fitness for binding parS DNA” value: ≤ 0.2 for the first, ≤ 0.2 for the second.

Going from RSRG to THMS, the “one-hybrid fitness for binding parS DNA” value falls from 0.965 to ≤ 0.2.

First: QMYA
Second: RLHT
The “one-hybrid fitness for binding parS DNA” value of the first is lower: ≤ 0.2 for the first, 0.937 for the second.

AEGI and LKLA cannot be ordered by “one-hybrid fitness for binding parS DNA” value: ≤ 0.2 for the first, ≤ 0.2 for the second.

YCTD and STLV cannot be ordered by “one-hybrid fitness for binding parS DNA” value: ≤ 0.2 for the first, ≤ 0.2 for the second.

WRES and QLWR cannot be ordered by “one-hybrid fitness for binding parS DNA” value: ≤ 0.2 for the first, ≤ 0.2 for the second.

ANMV and RDDR cannot be ordered by “one-hybrid fitness for binding parS DNA” value: ≤ 0.2 for the first, ≤ 0.2 for the second.

VGEF and PTTL cannot be ordered by “one-hybrid fitness for binding parS DNA” value: ≤ 0.2 for the first, ≤ 0.2 for the second.

RTMI was tested, and the “one-hybrid fitness for binding parS DNA” value was ≤ 0.2.

From a collection of fitness landscapes (doi:10.1016/j.celrep.2020.107928)
